Test results reported in article PMC4336329 (PLoS ONE, 2015).
Screen size: about 310,000 compounds; about 2,200 (0.71%) showed an effect of 50% or more. Effects have a minus sign here. Some of the results follow.

These compounds were tested against human ether-à-go-go-related gene (hERG) potassium channel (human, UniProt Q12809) (assay: primary screen, population patch clamp on CHO cells stably expressing hERG).
Sequence of human ether-à-go-go-related gene (hERG) potassium channel (Q12809 whole entry, looked up): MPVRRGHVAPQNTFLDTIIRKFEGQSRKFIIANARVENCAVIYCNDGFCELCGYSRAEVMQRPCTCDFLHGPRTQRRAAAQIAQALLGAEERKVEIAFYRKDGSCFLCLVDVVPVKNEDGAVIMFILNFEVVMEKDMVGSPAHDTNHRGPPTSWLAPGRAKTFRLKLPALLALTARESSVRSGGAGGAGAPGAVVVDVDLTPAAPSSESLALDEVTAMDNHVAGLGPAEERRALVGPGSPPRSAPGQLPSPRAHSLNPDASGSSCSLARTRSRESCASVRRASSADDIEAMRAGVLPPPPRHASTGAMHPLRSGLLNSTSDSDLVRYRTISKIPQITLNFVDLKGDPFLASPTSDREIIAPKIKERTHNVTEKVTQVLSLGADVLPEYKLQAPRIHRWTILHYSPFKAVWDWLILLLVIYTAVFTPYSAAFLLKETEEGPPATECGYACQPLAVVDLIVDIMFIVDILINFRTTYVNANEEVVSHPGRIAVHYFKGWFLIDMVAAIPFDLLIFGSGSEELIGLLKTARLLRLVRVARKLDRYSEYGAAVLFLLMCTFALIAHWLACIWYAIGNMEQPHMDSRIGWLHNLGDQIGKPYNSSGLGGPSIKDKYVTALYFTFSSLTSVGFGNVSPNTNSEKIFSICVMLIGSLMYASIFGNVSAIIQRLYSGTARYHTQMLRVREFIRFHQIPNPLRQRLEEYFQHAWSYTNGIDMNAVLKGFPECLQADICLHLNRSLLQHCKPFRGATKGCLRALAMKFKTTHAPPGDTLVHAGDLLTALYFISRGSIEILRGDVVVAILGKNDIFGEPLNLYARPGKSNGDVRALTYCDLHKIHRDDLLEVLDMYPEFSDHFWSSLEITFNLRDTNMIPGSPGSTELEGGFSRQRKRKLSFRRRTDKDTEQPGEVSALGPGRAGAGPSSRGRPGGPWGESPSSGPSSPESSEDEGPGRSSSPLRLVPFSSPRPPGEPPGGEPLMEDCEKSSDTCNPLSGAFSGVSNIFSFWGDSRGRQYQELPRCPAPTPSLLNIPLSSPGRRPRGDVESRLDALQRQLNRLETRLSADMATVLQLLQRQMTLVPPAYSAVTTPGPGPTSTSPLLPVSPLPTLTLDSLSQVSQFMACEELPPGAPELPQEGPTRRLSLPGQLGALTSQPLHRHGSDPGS
For `Cc1c2cnn(CC(=O)NCCCN3CCCCC3)c(=O)c2c(C)n1Cc1ccccc1`, the “hERG current change (%, negative = inhibition) at 1uM” value was 12.4%.
For `Cc1ccc(S(=O)(=O)Nc2ccc(NC(=O)c3cccs3)cc2)cc1`, the “hERG current change (%, negative = inhibition) at 1uM” value was 9.04%.
`Cc1cn(C)c(=O)n(C)c1=O` was tested, and the “hERG current change (%, negative = inhibition) at 1uM” value was 1.21%.
`COC(=O)Cc1[nH]n(-c2ccccc2)c(=O)c1C(C)=Nc1ccccc1` was tested, and the “hERG current change (%, negative = inhibition) at 1uM” value was 6.7%.
In the case of `CN1CCN(c2ccccc2NC(=O)c2ccc(-c3ccc(Cl)cc3Cl)o2)CC1`, the “hERG current change (%, negative = inhibition) at 1uM” value is reported as -4%.
With `CCOC(=O)c1c(-c2ccc(C)o2)csc1NC(=S)NC(=O)c1cccs1` the “hERG current change (%, negative = inhibition) at 1uM” value was 18.3%.
In the case of `CCOc1ccc(-c2noc(CCC(=O)NCCc3ccccc3)n2)cc1OC`, the “hERG current change (%, negative = inhibition) at 1uM” value is reported as 13.6%.
In the case of `Cc1ccccc1NS(=O)(=O)c1cc2c(cc1C)NC(=O)CO2`, the “hERG current change (%, negative = inhibition) at 1uM” value is reported as -5.72%.
With `Cc1ccc(C(C)C)c(OCc2nc(-c3nonc3N)no2)c1` the “hERG current change (%, negative = inhibition) at 1uM” value was 9.33%.
For `O=C(NCCN1CCOCC1)c1cc(-c2ccc(Cl)s2)nc2ccccc12`, the “hERG current change (%, negative = inhibition) at 1uM” value was 9.12%.
With `CCCC(c1nnnn1CCOC)N1CCN(Cc2ccccc2)CC1.Cl` (stereo not drawn) the “hERG current change (%, negative = inhibition) at 1uM” value was 7.12%.
With `CN1C(N)=NC(=O)/C1=C/c1ccccc1F` the “hERG current change (%, negative = inhibition) at 1uM” value was 6.33%.
With `O=C(COc1ccccc1Cl)NCCCNC(=O)c1ccncc1` the “hERG current change (%, negative = inhibition) at 1uM” value was 15.8%.
For `COc1ccccc1C(=O)COC(=O)CCN=C1NS(=O)(=O)c2ccccc21`, the “hERG current change (%, negative = inhibition) at 1uM” value was 0.619%.
For `COCCNC(=O)/C(C#N)=C/c1c(N2CCN(c3ccc(OC)cc3)CC2)nc2c(C)cccn2c1=O`, the “hERG current change (%, negative = inhibition) at 1uM” value was 11.5%.
`COc1cc(CC(=O)N/N=C/c2ccc([N+](=O)[O-])cc2)c([N+](=O)[O-])cc1OC` was tested, and the “hERG current change (%, negative = inhibition) at 1uM” value was 14.5%.
For `O=C(O)c1ccc(Nc2ccc(Cl)c(Cl)c2)c([N+](=O)[O-])c1`, the “hERG current change (%, negative = inhibition) at 1uM” value was 14.3%.
In the case of `CC(C)N1C(=O)CCN(C=O)c2ccccc21`, the “hERG current change (%, negative = inhibition) at 1uM” value is reported as 13.5%.
In the case of `Cc1cc(C)c(C(=O)c2ccc(C(=O)NC(C)(C)C)cc2)c(C)c1`, the “hERG current change (%, negative = inhibition) at 1uM” value is reported as 12.3%.
For `CC(C)CCNC(=O)c1nnc(Cc2ccc(Cl)cc2)o1`, the “hERG current change (%, negative = inhibition) at 1uM” value was 12%.
With `O=C(c1ccc(C(F)(F)F)cc1)N1CCC(=O)N(C(COCc2ccc(Cl)cc2)Cc2ccccc2)CC1` (stereo not drawn) the “hERG current change (%, negative = inhibition) at 1uM” value was 6.71%.
For `Cc1ccc2[nH]c(=O)c(-c3nc4cc(C)ccn4c3NCc3ccco3)cc2c1`, the “hERG current change (%, negative = inhibition) at 1uM” value was 2.77%.
With `Cc1cccc(-n2ccc(=O)c(C(=O)O)n2)c1` the “hERG current change (%, negative = inhibition) at 1uM” value was 15%.
With `CC(=O)NCCn1c(SCC(=O)Nc2ccc(C)cc2)nc2ccccc2c1=O` the “hERG current change (%, negative = inhibition) at 1uM” value was 3.26%.
With `COc1ccc(F)cc1S(=O)(=O)NCCN1CCOCC1` the “hERG current change (%, negative = inhibition) at 1uM” value was 15.2%.
`CC(C)(C)NC(=O)C(c1ccncc1)N(C(=O)CNC(=O)c1ccco1)c1ccc(F)cc1` (stereo not drawn) was tested, and the “hERG current change (%, negative = inhibition) at 1uM” value was 8.26%.
With `CCCc1nc(SCC(=O)Nc2cc(C)on2)c2c(=O)n(C)c(=O)n(C)c2n1` the “hERG current change (%, negative = inhibition) at 1uM” value was -1.4%.
`Cc1cc(C(=O)CSc2nnc(-c3cccs3)n2Cc2ccccc2)c(C)n1C` was tested, and the “hERG current change (%, negative = inhibition) at 1uM” value was -7.66%.
For `Cn1cc(Cl)c(C(=O)NNC(=S)Nc2cccc(Cl)c2)n1`, the “hERG current change (%, negative = inhibition) at 1uM” value was 8.53%.
`Oc1cccc2ccc(N3CCOCC3)nc12` was tested, and the “hERG current change (%, negative = inhibition) at 1uM” value was 14.8%.
With `COC(=O)c1cc(S(=O)(=O)N2CCN(c3cc(C)ccc3C)CC2)c[nH]1` the “hERG current change (%, negative = inhibition) at 1uM” value was -2.62%.
`Cc1ccc2c(Cl)c(C(=O)NC3CC3)sc2c1` was tested, and the “hERG current change (%, negative = inhibition) at 1uM” value was 9.87%.
For `Cc1ccc(NC(=O)Nc2ccc3c(c2)CCC3)c(C)c1`, the “hERG current change (%, negative = inhibition) at 1uM” value was 11.1%.
With `Oc1ccc(CN2CCc3ccccc3C2)c2cccnc12` the “hERG current change (%, negative = inhibition) at 1uM” value was -6.29%.
`Cc1cc(C(=O)NCc2ccc(F)cc2)c2ccccc2n1` was tested, and the “hERG current change (%, negative = inhibition) at 1uM” value was 8.77%.
In the case of `CCOc1ccc(C(=O)N/N=C/c2cccc3cccnc23)cc1`, the “hERG current change (%, negative = inhibition) at 1uM” value is reported as 8.66%.
With `Cc1ccc(S(=O)(=O)N2CCCC(C(=O)N3CCC4(CC3)OCCO4)C2)cc1` (stereo not drawn) the “hERG current change (%, negative = inhibition) at 1uM” value was -2.24%.
With `CC1CCN(C(=O)CCC(=O)Nc2nnc(C3CCCCC3)s2)CC1` the “hERG current change (%, negative = inhibition) at 1uM” value was 11.4%.
For `C=C1CCC(C)C(C)(CCC2=CCOC2=O)C/C=C\C=C/1C(=O)O` (stereo not drawn), the “hERG current change (%, negative = inhibition) at 1uM” value was 11.3%.
`CCCCc1nc(SCC(=O)N2CCOCC2)c2c(=O)n(C)c(=O)n(C)c2n1` was tested, and the “hERG current change (%, negative = inhibition) at 1uM” value was 5.14%.
For `CCC(C)NC(=O)CSc1ncccc1C(=O)O` (stereo not drawn), the “hERG current change (%, negative = inhibition) at 1uM” value was 7.29%.
For `CCOc1[nH]n(-c2ccccc2)c(=O)c1C=Nc1ccc(Cl)cc1`, the “hERG current change (%, negative = inhibition) at 1uM” value was 10.8%.
With `COc1cccc(/C=N/NC(=O)c2nnn(-c3nonc3N)c2CN(C)c2ccccc2)c1` the “hERG current change (%, negative = inhibition) at 1uM” value was 12.9%.
`O=C(Nc1ccc(F)cc1)N1CCN(C/C=C/c2ccccc2)CC1` was tested, and the “hERG current change (%, negative = inhibition) at 1uM” value was -5.77%.
`CCOC(=O)COc1ccc2c(c1)c(C(C)=O)c(C)n2-c1ccccc1` was tested, and the “hERG current change (%, negative = inhibition) at 1uM” value was 12.9%.
`O=C(COC(=O)Cc1ccccc1)NC(=O)NC1CCCCC1` was tested, and the “hERG current change (%, negative = inhibition) at 1uM” value was 10.2%.
In the case of `CCOC(=O)Cn1ccc(NC(=O)COc2ccc(F)cc2F)n1`, the “hERG current change (%, negative = inhibition) at 1uM” value is reported as 7.27%.
In the case of `CCOC(=O)c1c(NC(=O)CSc2nnnn2-c2ccc3c(c2)OCO3)sc(C)c1C`, the “hERG current change (%, negative = inhibition) at 1uM” value is reported as 15.1%.
For `CCOCCCNC(=O)c1ccc2c(c1)N(Cc1ccccc1)C(=O)CS2=O` (stereo not drawn), the “hERG current change (%, negative = inhibition) at 1uM” value was 12.5%.
In the case of `O=C(CCS(=O)(=O)c1ccc2c(c1)NC(=O)CO2)NCCc1ccccc1`, the “hERG current change (%, negative = inhibition) at 1uM” value is reported as 9.02%.
For `CC1=CSC2=NS(=O)(=O)CCN12`, the “hERG current change (%, negative = inhibition) at 1uM” value was 13.7%.
In the case of `CCN(CC)CCNC(=O)Cn1nc(Cc2cccnc2)c2ccccc2c1=O`, the “hERG current change (%, negative = inhibition) at 1uM” value is reported as 5.82%.
In the case of `Cc1ccccc1-n1c([C@@H]2C[C@H]2c2ccccc2)n[nH]c1=S`, the “hERG current change (%, negative = inhibition) at 1uM” value is reported as 17.5%.
With `O=Cc1c(NC2CCCCC2)c2ccccc2[nH]c1=O` the “hERG current change (%, negative = inhibition) at 1uM” value was 6.77%.
With `CN(C)CCNc1oc(-c2ccccc2Cl)nc1S(=O)(=O)c1ccccc1` the “hERG current change (%, negative = inhibition) at 1uM” value was 6.86%.
In the case of `CC(C)(C)n1nnnc1C(c1ccccn1)N(Cc1ccccc1)Cc1ccc(Cl)cc1` (stereo not drawn), the “hERG current change (%, negative = inhibition) at 1uM” value is reported as 16.8%.
`CC1CCN(C(=O)/C(=C\c2ccccc2)NC(=O)c2ccccc2)CC1` was tested, and the “hERG current change (%, negative = inhibition) at 1uM” value was 10.2%.
